According to patent US20220226341A1, “Pharmaceutical Composition for Alzheimer's Disease” (Kyoto University, priority 2019, published 2022):
The source gives many values for each of these; only a part stands here.

Test: Tissue distribution of radioactivity after single intravenous administration of 14C-labeled Compound 1 (blood-brain barrier penetration)
Type: in vivo
Details: rats, single iv 5 mg/kg 14C-labeled, n = 3
Description: [Testing the Penetration of the Compound Through the Blood-Brain Barrier]
Brain permeability (intracerebral transferability) of Compound 1 was evaluated.
^14C-labeled Compound 1 was intravenously administered once in a dose of 5 mg/kg (3.52 MBq/kg) to rats, and histological distribution (biodistribution) thereof was studied.

With `Fc1ccc(N2CCCCC2)c(NC(=S)c2ccncc2)c1` [Compound 1] the Radioactivity concentration (Blood, 5 min) was 2064.57 ng eq. of Compound 1/g or mL, the Radioactivity concentration (Blood, 6 h) was 959.54 ng eq. of Compound 1/g or mL and the Radioactivity concentration (Blood, 24 h) was 109.67 ng eq. of Compound 1/g or mL. The Radioactivity concentration (Blood, 72 h) was 12.94 ng eq. of Compound 1/g or mL, the Radioactivity concentration (Cecum, 24 h) was 559.36 ng eq. of Compound 1/g or mL and the Radioactivity concentration (Cecum, 72 h) was 17.15 ng eq. of Compound 1/g or mL. For the same molecule, the Radioactivity concentration (Cerebellum, 5 min) was 12499.69 ng eq. of Compound 1/g or mL, the Radioactivity concentration (Cerebellum, 6 h) was 905.96 ng eq. of Compound 1/g or mL and the Radioactivity concentration (Cerebellum, 24 h) was 102.6 ng eq. of Compound 1/g or mL. The Radioactivity concentration (Cerebellum, 72 h) was 12.62 ng eq. of Compound 1/g or mL, the Radioactivity concentration (Cerebrum, 5 min) was 12122.17 ng eq. of Compound 1/g or mL and the Radioactivity concentration (Cerebrum, 6 h) was 853.47 ng eq. of Compound 1/g or mL. For the same molecule, the Radioactivity concentration (Cerebrum, 24 h) was 89.01 ng eq. of Compound 1/g or mL, the Radioactivity concentration (Cerebrum, 72 h) was 7.26 ng eq. of Compound 1/g or mL and the Radioactivity concentration (Large intestine, 5 min) was 5132.52 ng eq. of Compound 1/g or mL. For the same molecule, the Radioactivity concentration (Large intestine, 6 h) was 2429.43 ng eq. of Compound 1/g or mL, the Radioactivity concentration (Large intestine, 24 h) was 388.61 ng eq. of Compound 1/g or mL and the Radioactivity concentration (Large intestine, 72 h) was 9.66 ng eq. of Compound 1/g or mL. For the same molecule, the Radioactivity concentration (Pituitary gland, 5 min) was 10215.59 ng eq. of Compound 1/g or mL, the Radioactivity concentration (Pituitary gland, 6 h) was 849.11 ng eq. of Compound 1/g or mL and the Radioactivity concentration (Pituitary gland, 24 h) was 66.5 ng eq. of Compound 1/g or mL. The Radioactivity concentration (Plasma, 5 min) was 2644.34 ng eq. of Compound 1/g or mL, the Radioactivity concentration (Plasma, 6 h) was 1132.96 ng eq. of Compound 1/g or mL and the Radioactivity concentration (Plasma, 24 h) was 121.88 ng eq. of Compound 1/g or mL. For the same molecule, the Radioactivity concentration (Plasma, 72 h) was 8.73 ng eq. of Compound 1/g or mL, the Radioactivity concentration (Plasma, 168 h) was 3.46 ng eq. of Compound 1/g or mL and the Radioactivity concentration (Urinary bladder, 5 min) was 2474.13 ng eq. of Compound 1/g or mL. The Radioactivity concentration (Urinary bladder, 6 h) was 7563.63 ng eq. of Compound 1/g or mL, the Radioactivity concentration (Urinary bladder, 24 h) was 356.22 ng eq. of Compound 1/g or mL and the Radioactivity concentration (Urinary bladder, 72 h) was 19.22 ng eq. of Compound 1/g or mL.
